In the supplement of paper PMC10126150 one finds switch fluorescence ratio data, which are given here for 79 sequences.

Sequences with one replicate were seen in a single cluster, so their values are uncertain.

This data set concerns ATP. Kind of data set: switch fluorescence ratio, 500 uM ATP over buffer (Cy3 cluster intensity, sum of 5 cycles each) (fold (ratio)); higher = stronger signal-on switching upon ATP binding; sequences stand for … in TCGTCGGCAGCGTCAGATGTGTATAAGAGACAGTTTTTTTTTTTTTTTTTTTTTTTTT…TC. The conditions noted are these: aptamer strand: ATP DNA aptamer (quencher-CACCTGGGGGAGTATTGCGGAGGAAGG + anchor), 100 nM annealed; ATP concentration: 500 uM; one replicate. A digest of the protocol:
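Five buffer/ATP imaging cycles were run on Cy3-labelled switching-strand clusters on a modified Illumina MiSeq flow-cell, with NaOH stripping and re-annealing between cycles. In each cycle, clusters annealed to 100 nM quencher-labelled ATP aptamer were imaged in selection buffer, then after 15 min with 500 uM ATP at 22 °C. Per cluster, the fluorescence ratio is summed target-cycle over summed buffer-cycle Cy3 intensity, averaged per switch-domain sequence. Only clusters within 100-1000 RFU were kept.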
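Note: ATP exposure 15 min at 22 °C before imaging.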

Regarding CTCATAAACG, the switch fluorescence ratio was determined as 1.03.
Regarding GGGATCTCTG, the switch fluorescence ratio was determined as 0.956.
For the sequence AGATGGAAAG, the switch fluorescence ratio is 0.981.
In the case of TACATCAGCA, the switch fluorescence ratio was 0.994.
As to AGGTTGTCAG, the switch fluorescence ratio came to 0.991.
For GTTTTAACCT the value was 1.24; for TTCCGCAAAC, 1.48; for GTCGAGGCGA, 1.02.
For TGCGCACACC the value was 1.25.
For AAATTGGCGC the value was 0.977; for AGACCGTGGC, 1.02; for TTGCCAGGCG, 0.983.
Take CCGGTACCCA: the switch fluorescence ratio came to 1.06.
Consider ATCGGGATGC, for which the switch fluorescence ratio was 1.37.
The same measure for TTTTGCGCAT: 1.05; for TTCGAAAAGG: 1.04; for AAATATGTCT: 0.957.
The same measure for CGCGCCGACC: 1.18; for GTAGCGGTCA: 1.02.
Take CGGGGACCTT: the switch fluorescence ratio came out at 1.06.
For the sequence GTATTGAGCT, the switch fluorescence ratio stood at 0.966.
For TTGCTTAACT the value was 1.01.
Regarding CCGTCATTAA, the switch fluorescence ratio came out at 2.37.
For CATGATAGCT the value was 0.982; for GTCTTTTTGG, 0.946; for TAAACAATGG, 1.17.
Take GGGCCACGGG: the switch fluorescence ratio is 1.02.
The same measure for ACGGTTGCGT: 0.957; for TTAGTTGGTT: 0.945; for GAGACAGTCA: 1.
GAGGTAGAAT: the switch fluorescence ratio was determined as 1.02.
For CACGTTTGAT the value was 1; for TTTCTGAGTA, 0.965.
The same measure for AAGGCGACTG: 0.968.
The same measure for GTTAATCGCT: 1.04.
For the sequence TATTGCTGTT, the switch fluorescence ratio was 0.999.
The same measure for TGGGCTTCCA: 1.01; for TTCTACCGAC: 1.56; for TGTCTGGTCT: 1.
Take AGCTAGCCTC: the switch fluorescence ratio is 1.02.
Regarding ATACCTGAGA, the switch fluorescence ratio amounted to 0.987.
For TTCAGGGCAG the value was 0.993; for CGGGGCGTTC, 1.04; for ACTTGCGTTG, 1.03.
The same measure for AGCGCGACGT: 1.01; for TACGGCGCA: 0.939; for GGACGGTAAC: 1.22.
For the sequence TGAGACGGGT, the switch fluorescence ratio came out at 0.988.
As for GCCAACCGCA, the switch fluorescence ratio came to 1.38.
The same measure for TGCGTCTTAG: 0.946; for GCTTCTCTAA: 1.01.
TATGTAACGC: the switch fluorescence ratio came out at 1.
The same measure for ATCTTATATT: 0.978; for ATTTCGTTGG: 0.958.
For ACTGCACCAT the value was 1.34.
The same measure for CCATTCAGTT: 1.04; for TAATGGCCCT: 0.952.
As for GAAGGCACTC, the switch fluorescence ratio was found to be 1.06.
With GTGGTTGGTG, the switch fluorescence ratio was 0.994.
For CTGGGGCCGG the value was 1.06; for TAGAGCTGGT, 0.977; for ATAGGTTCAT, 0.982.
In the case of CCTTCTGTA, the switch fluorescence ratio is 1.1.
As for GGTACGAGCT, the switch fluorescence ratio stood at 1.01.
Take CTCTCACCGC: the switch fluorescence ratio came out at 1.48.
The same measure for AAGTATACAG: 1.05.
AAAGGATATT: the switch fluorescence ratio was determined as 0.984.
The same measure for GAAGTACATC: 1.22; for CAGTTGCGTG: 1.02; for TGGCCGGTAC: 1.15.
For CTCAAGCCCG the value was 1.09; for TTTCATCATG, 0.985; for CTTGGAACTC, 1.
As for TGTTCTAGGA, the switch fluorescence ratio turned out to be 1.03.
Turning to GGCGAGTAGG, the switch fluorescence ratio stood at 0.998.
For the sequence GAAATACTGG, the switch fluorescence ratio came out at 1.06.
As for GGAAGGAAGC, the switch fluorescence ratio was 0.992.
The same measure for TTCGGTTCTT: 0.955; for GGGACTATAA: 0.97.
